From PubChem BioAssay AID1508624 (National Center for Advancing Translational Sciences (NCATS), 2021)
Screen size: about 48,000 compounds; about 120 (0.25%) were called active. About 4% were inconclusive and are not listed. Calls follow the shape of the dose curve; as a rule, active = well fitted activation curve with a large enough effect; inconclusive = small, poorly fitted or top-dose-only effect, or another doubt; inactive = no such curve, though single readings can be large or run the other way. Some of the results follow.

Assay: Primary qHTS for Identification of Small Molecule Activators of Huntingtin-Antisense Promoter Activity; also: nearly all actives have a fitted effect of over 55% in size
Conditions: HEK293 HTT-AS promoter firefly luciferase reporter (activity 0% = vehicle and -100% = no light), 24 h; series mostly up to 57.5 µM; activity change, positive = activation: at the top concentration
Procedure, shortened: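 Firefly luciferase signal from promoter-reporter HEK293 cells was scaled between vehicle (0%) and zero RLU (-100%). Compounds were tested at final concentrations of up to 57.5 uM over 24 h at 37 degrees C. PTC124 at 50 uM final served as control inhibitor.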

Activity change, positive = activation, inactive:
COc1ccc(-c2cc3ccc(O)c(CN4CCOCC4)c3oc2=O)cc1 9.34%
CC(=O)N1CCc2cc(Br)cc(S(=O)(=O)N3CCC(C(=O)N(C)c4cc(C)ccc4C)CC3)c21 3.99%
Cc1cccc(NC(=O)c2nc(S(C)(=O)=O)ncc2Cl)c1 -96.7%
COc1cc(NC(=O)c2ccccc2)ccc1NC(=O)c1cc2ccccc2o1 -8.55%
Cc1cccc(NC(=O)CSc2nc(-c3ccco3)nc3cc(=O)[nH]n23)c1 -18.2%
COc1ccc(-c2ccc3c(N)c(C(=O)NCc4ccc(Cl)cc4)sc3n2)cc1 -3.68%
COC(=O)c1c(SC)nc2ccccc2c1OCc1ccccc1C -13.2%
O=C(CCn1c(=O)c2ccccc2n(Cc2ccc(F)cc2Cl)c1=O)NCc1ccc2c(c1)OCO2 -5.79%
CCc1ccc(NC(=O)C2CCN(S(=O)(=O)c3ccc4[nH]c5c(c4c3)CCCCC5)CC2)cc1 -24.1%
Nc1nc2ccc(OC(F)(F)F)cc2s1
Oc1cc(O)c2c(c1)O[C@H](c1ccc(O)c(O)c1)[C@H](O)C2 1.9%
Cc1cccc(OCC(=O)OCc2cc(=O)n3nc(C4CCCCC4)sc3n2)c1 2.23%
COc1ccc(C(=O)COC(=O)c2cccc(NC(=O)c3ccc(OC)c(OC)c3)c2)cc1 -14.2%
CCOC(=O)C(CC)n1nc(C)n2c(cc3occc32)c1=O (stereo not drawn) -15.1%
COc1ccc(C(=O)c2cn(Cc3ccc(F)cc3)c3ccc(C)cc3c2=O)cc1 -13.6%
CN1CCC(=C2c3ccccc3CCc3cccnc32)CC1 -2.75%
COc1ccnc2c1CCCCC2S(=O)c1nc2ccccc2[nH]1 (stereo not drawn) 0.921%
Cc1ccc(-c2nc3ccccn3c2Nc2ccc3c(c2)OCO3)cc1 -1.87%
Cc1csc2nc(-c3cccc(NC(=O)c4ccccc4Cl)c3)cn12 1.47%
Cc1ccc(S(=O)(=O)NCC(c2ccc(N(C)C)cc2)N2CCOCC2)cc1 (stereo not drawn) -23.1%
O=C(NC1CCCCCC1)C1CCN(C(=O)N2CCOc3ccccc32)CC1 11.4%
COCCNC(=O)c1c(C)oc2nc(C)nc(N3CCOCC3)c12 -0.264%
COc1ccc(C2c3c(-c4c(C)cc(C)cc4O)n[nH]c3C(=O)N2Cc2ccco2)cc1 (stereo not drawn) -40%
CCOC(=O)c1c(NC(=O)c2ccccc2Cl)sc2c1CCCC2 -5.67%
O=C(NCCCN1CCN(c2ccc(F)cc2)CC1)Nc1ccc(Cl)cc1 -25.6%
COc1cccc(-c2nc(CS(=O)(=O)CC(=O)NCc3ccc(C)cc3)c(C)o2)c1 -8.43%
COc1ccc2c(c1)c(CC(=O)O)c(C)n2C(=O)c1ccc(Cl)cc1
Cc1ccc(CN2C(=O)C(O)(c3c[nH]c4ccccc34)c3cc(Cl)ccc32)cc1 (stereo not drawn) -27.6%
